Laboratory results as given in PMC4336329 (PLoS ONE, 2015).
The whole screen tested about 310,000 compounds, of which about 14,000 (4.5%) showed an effect of 50% or more. Effects have a minus sign here. The list shows a part of the results.

molecular target: human ether-à-go-go-related gene (hERG) potassium channel (human, UniProt Q12809); assay: primary screen, population patch clamp on CHO cells stably expressing hERG
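Also: peak tail current of the secondary pulse compared with the same well before compound.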

Chain of human ether-à-go-go-related gene (hERG) potassium channel (Q12809 whole entry, looked up): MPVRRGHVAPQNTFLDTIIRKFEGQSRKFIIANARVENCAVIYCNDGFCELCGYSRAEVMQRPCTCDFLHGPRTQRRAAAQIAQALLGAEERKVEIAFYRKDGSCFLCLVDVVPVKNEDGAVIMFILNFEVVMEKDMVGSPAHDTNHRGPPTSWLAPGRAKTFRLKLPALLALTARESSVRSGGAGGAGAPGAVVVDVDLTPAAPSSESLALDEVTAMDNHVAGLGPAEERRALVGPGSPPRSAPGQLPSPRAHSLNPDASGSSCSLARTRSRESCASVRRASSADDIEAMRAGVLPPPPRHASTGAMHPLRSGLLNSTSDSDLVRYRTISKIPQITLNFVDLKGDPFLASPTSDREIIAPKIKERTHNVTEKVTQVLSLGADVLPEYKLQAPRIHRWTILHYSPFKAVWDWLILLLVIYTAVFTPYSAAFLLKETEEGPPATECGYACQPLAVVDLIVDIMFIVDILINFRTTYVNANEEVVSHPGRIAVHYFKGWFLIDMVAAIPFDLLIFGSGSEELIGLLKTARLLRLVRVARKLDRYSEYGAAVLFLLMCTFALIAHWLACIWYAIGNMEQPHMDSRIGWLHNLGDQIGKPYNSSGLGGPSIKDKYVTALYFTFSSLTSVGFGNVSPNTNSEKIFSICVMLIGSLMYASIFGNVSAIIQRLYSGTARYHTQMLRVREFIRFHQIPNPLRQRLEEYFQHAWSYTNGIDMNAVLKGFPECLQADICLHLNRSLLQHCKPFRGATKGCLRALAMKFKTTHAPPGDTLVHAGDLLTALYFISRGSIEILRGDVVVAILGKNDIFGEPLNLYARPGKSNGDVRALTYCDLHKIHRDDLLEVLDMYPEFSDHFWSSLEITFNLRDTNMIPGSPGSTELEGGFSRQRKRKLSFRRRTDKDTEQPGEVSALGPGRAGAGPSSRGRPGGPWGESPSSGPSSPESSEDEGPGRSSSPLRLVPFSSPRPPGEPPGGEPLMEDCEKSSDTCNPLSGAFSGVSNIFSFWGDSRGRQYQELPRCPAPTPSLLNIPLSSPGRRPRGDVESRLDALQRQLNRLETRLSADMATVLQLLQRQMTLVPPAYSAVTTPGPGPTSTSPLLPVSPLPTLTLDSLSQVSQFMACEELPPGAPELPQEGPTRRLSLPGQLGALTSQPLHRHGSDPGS

Row | Compound | hERG current change (%, negative = inhibition) at 10uM [%]
1 | COC(=O)[C@@H]1C[C@H]2CC[C@H](O)C[C@H]2N1Cc1ccc(C)s1 | 5.65
2 | CC(C)(C)OC(=O)NCCc1nnc(SCc2cccc(Cl)c2)o1 | -1.84
3 | CN(Cc1cccc([N+](=O)[O-])c1)Cc1cccc2ccccc12 | 11
4 | COc1ccc(C2=NS(=O)(=O)N(C)C(C(=O)N3CCC(C)CC3)=C2)cc1 | -41.2
5 | Cc1ccccc1C(=O)c1cccn1CC(=O)NCc1ccc2c(c1)OCO2 | 14
6 | COC(CNC(=O)C1CCCN1C(=O)OCc1ccccc1)OC (centres unmarked) | 5.41
7 | COc1ccc2nc3cccc(OC)c3nc2c1 | 12.7
8 | CN(Cc1nc2ccccc2c(=O)[nH]1)C(=O)COc1ccccc1Cc1ccccc1 | -43.3
9 | COc1ccc(C(C(=O)Nc2ccc(C(C)C)cc2)N(C)C(=O)c2ccc(=O)[nH]c2)cc1 (centres unmarked) | -1.59
10 | CC(C)CCC(C)NC(=O)Cc1ccc(S(=O)(=O)N2CCOCC2)s1 (centres unmarked) | 24.7
11 | CCOc1ccccc1-c1nc(-c2ccc(NC(=O)c3ccc(Br)o3)cc2)no1 | 1.12
12 | CC(C)n1nnnc1SCC(=O)NCCc1ccccc1 | 10.1
13 | O=C(NCCn1cc(SCC(=O)N2CCOCC2)c2ccccc21)c1ccccc1 | -7.79
14 | O=C(Nc1ccc2c(c1)CCC2)c1ccccc1 | 9.66
15 | O=C1C2C3C=CC(C4CC34)C2C(=O)N1/N=C/c1ccc([N+](=O)[O-])o1 (centres unmarked) | -4.53
16 | CCC1CCc2sc(C(=O)NCC(c3ccc(OC)cc3)N3CCOCC3)cc2C1 (centres unmarked) | -5.82
17 | Nc1[nH]c(=O)ncc1F | 9.84
18 | CCOCc1nnc(NC(=O)C2CC(=O)N(CCc3ccc(F)cc3)C2)s1 (centres unmarked) | 5.97
19 | O=S(=O)(Cc1noc(-c2ccc(Cl)cc2)n1)Cc1ccco1 | -4.77
20 | Cc1cc(NS(=O)(=O)c2ccc(NC(=O)/C=C/c3ccco3)cc2)nc(C)n1 | -1.13

Row | Compound | hERG current change (%, negative = inhibition) at 10uM [%]
21 | O=C(Nc1nnc(Cc2ccccc2)s1)c1ccccc1 | 0.319
22 | COc1ccccc1NS(=O)(=O)c1ccc(O)c(C(N)=O)c1 | 5.43
23 | CN1CCC(C2(O)c3ccccc3CCc3ccccc32)CC1 | -19.2
24 | O=C(N=C1SC2CS(=O)(=O)CC2N1Cc1ccccc1Cl)C1CCCO1 (centres unmarked) | 21.7
25 | CC1CCC(NC(=O)C2CCN(c3nc4ccccc4s3)CC2)CC1 (centres unmarked) | 10.2
26 | O=C(CCCCCNc1nc(=S)[nH]c2ccccc12)NCCC1=CCCCC1 | -1.66
27 | Cc1c(C(=O)O)nnn1-c1ccccc1 | 10
28 | O=C(Nc1cccnc1Cl)c1cc(-c2ccc(O)cc2)on1 | 23.2
29 | Cc1ccc(OCCCC(=O)NCc2ccco2)c(C)c1 | 0.0372
30 | O=C(CSc1nnc(-c2ccc(Cl)cc2)n1-c1ccccc1)N/N=C/c1ccccc1C(=O)O | 12.6
31 | CCn1c(O)c(/C=N/N=C2CCCC2)c2ccc(C3=NNC(=O)CC3)cc21 | -3.53
32 | Cc1nn(-c2ccccc2)c2sc(C(=O)N3CCOCC3)cc12 | -19
33 | CN(C(=O)COC(=O)CNC(=O)c1ccccc1F)C1CCCCC1 | 0.188
34 | Cl.Nc1ccc2c(c1)OCCOCCOCCOCCOCCO2 | -33.5
35 | Cc1cccc(OCC(=O)N2CCN(C(=O)COc3ccc(Cl)cc3)CC2)c1 | -72.2
36 | Cc1ccc(F)cc1NC(=O)CCc1c(C)nn(-c2ccc(N3CCCCC3)nn2)c1C | 0.00258
37 | CC(=O)c1ccc2c(c1)N(C)c1ccccc1S2 | 0.783
38 | O=S(=O)(c1ccc(N2CCCCCC2)nc1)N1CCCC1 | 17.2
39 | Cc1cc(SCC(=O)OC/C(O)=C(\C#N)c2nc3ccccc3[nH]2)c(C)cc1Br | 26.9
40 | Cc1ccc(C(=O)/C=C/c2ccccc2[N+](=O)[O-])cc1 | 6.14

Row | Compound | hERG current change (%, negative = inhibition) at 10uM [%]
41 | O=C(Nc1ccccn1)C(=O)N1CCCCC1 | 6.52
42 | COc1ccc2cc(CCl)c(Cl)nc2c1 | 9.67
43 | COc1ccc(CNC(=O)CCSCc2cccc(Cl)c2)c(OC)c1 | -21.7
44 | Nc1c([N+](=O)[O-])cc(-c2cnc[nH]2)cc1[N+](=O)[O-] | 22.4
45 | O=C(CSc1nnnn1C1CCCCC1)N1CCc2ccccc21 | 0.871
46 | O=C(CCCn1c(=S)[nH]c2ccccc2c1=O)NC1CCCCC1 | 12.7
47 | COc1ccc(CC(=O)NNC(=S)Nc2ccccc2)cc1Br | 11
48 | N#Cc1c(N)nc2c3c(sc(=N)c2c1N)NC(=O)CC3c1ccccc1 (centres unmarked) | 14.5
49 | CC(=O)N1c2ccccc2C(C)(c2ccccc2)CC1(C)C (centres unmarked) | -23.2
50 | Cc1ccccc1C(=O)N1CCC(C(=O)Nc2ccccn2)CC1 | 11.9
51 | CC(C)c1ccc(NC2CCCN(C(=O)CCN3CCCCC3=O)C2)cc1 (centres unmarked) | 17.1
52 | O=C(CN1CCC(n2nnc3cc(C(F)(F)F)ccc32)CC1)Nc1ccc2c(c1)CCC2 | 1.83
53 | CCOc1ncccc1C(=O)NCCc1c[nH]c2ccccc12 | -7.93
54 | O=C(c1cnc2sccn2c1=O)N(Cc1ccccc1)c1ccccn1 | -4.04
55 | Cc1ccc([N+](=O)[O-])cc1NC(=O)c1c(-c2ccccc2)noc1C | -9.12
56 | Cc1ccc(C(=O)NCCCc2ccccc2)s1 | 7.54
57 | COC(=O)Cc1ccc(NC(=S)NCc2ccc(OC)cc2)cc1 | -18.2
58 | Cn1ccc(C(=O)OCC(=O)c2ccccc2)n1 | -3.73
59 | Cc1ccc(C)c(OCCC(=O)NCCc2ccc(Cl)cc2)c1 | 21.6
